We go through two compounds from publication PMC7997032, “Organic synthesis and anti-influenza A virus activity of cyclobakuchiols A, B, C, and D” (PLoS ONE, 2021).

One assay concerns A/PR/8/34 virus. Kind of assay: Immunofluorescence staining of viral NP in influenza A virus-infected MDCK cells. As to conditions: A/PR/8/34, MOI 0.1, 24 h, Fig 4A.
In the next assay the test system is A/WSN/33 virus. The assay is described as above. The settings on record: A/WSN/33, MOI 0.1, 24 h, Fig 4C.

`C=C[C@]1(C)CCC(C(C)(C)O)C(c2ccc(O)cc2)C1` (stereo in doubt) [cyclobakuchiol D]: in the assay with A/PR/8/34 virus, the “concentrations at which the number of NP-stained cells was reduced compared to DMSO” value was in the range of 6.3 to 12.5 µM.
Regarding `C=C[C@@](C)(/C=C/c1ccc(O)cc1)CCC=C(C)C` [(+)-(S)-bakuchiol, reference compound], in the assay on A/WSN/33 virus, the “number of NP-stained cells compared with DMSO” value is reported as “equal to that in the DMSO-treated cells”. Further, in the assay with A/PR/8/34 virus, the “concentrations at which the number of NP-stained cells was reduced compared to DMSO” value fell in the range of 3.1 to 12.5 µM.
